# In the supplement of paper PMC8728848:
# This is one part of the list.
# B1: ECA (Erythrina cristagalli), P83410 (protein)
# chain: VETISFSFSEFEPGNDNLTLQGAALITQSGVLQLTKINQNGMPAWDSTGRTLYTKPVHMWDSTTGTVASFETRFSFSIEQPYTRPLPADGLVFFMGPTKSKPAQGYGYLGVFNNSKQDNSYQTLAVEFDTFSNPWDPPQVPHIGIDVNSIRSIKTQPFQLDNGQVANVVIKYDAPSKILHVVLVYPSSGAIYTIAEIVDVKQVLPDWVDVGLSGATGAQRDAAETHDVYSWSFQASLPE
# Legend:
# Test in all cases: glycan array binding signal (z-score within array); higher = stronger binding
# Settings in all cases: glycan notation: IUPAC condensed, linker removed
# [1] = target: Fuc(a1-2)[GalNAc(b1-3)]Gal
# Outline: (§1)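 Glycan array data were curated from 3228 arrays in the Consortium for Functional Glycomics database and kept only where the protein sequence was available. Glycan names were converted to IUPAC-condensed notation, and columns mapping to the same glycan were averaged. The binding signal is a within-array Z-score, averaged across arrays of the same protein sequence at different concentrations or buffers and across linkers. Negative Z-scores can be read as non-binding.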
# Fuc(a1-3)GlcNAc = target: Fuc(a1-3)GlcNAc
# Outline: as §1
# [2] = target: Fuc(a1-3)[Gal(b1-4)]Glc6S
# Outline: as §1
# [3] = target: Fuc(a1-3)[Gal(b1-4)]GlcNAc
# Outline: as §1
# [4] = target: Fuc(a1-3)[Gal(b1-4)]GlcNAc(b1-2)Man
# Outline: as §1
# [5] = target: Fuc(a1-3)[Gal(b1-4)]GlcNAc(b1-2)Man(a1-3)[Fuc(a1-3)[Gal(b1-4)]GlcNAc(b1-2)Man(a1-6)]Man(b1-4)GlcNAc(b1-4)GlcNAc
# Outline: as §1
# [6] = target: Fuc(a1-3)[Gal(b1-4)]GlcNAc(b1-2)Man(a1-3)[Fuc(a1-3)[Gal(b1-4)]GlcNAc(b1-2)Man(a1-6)]Man(b1-4)GlcNAc(b1-4)[Fuc(a1-6)]GlcNAc
# Outline: as §1
# [7] = target: Fuc(a1-3)[Gal(b1-4)]GlcNAc(b1-3)Gal(b1-3)[Fuc(a1-4)]GlcNAc
# Outline: as §1
# [8] = target: Fuc(a1-3)[Gal(b1-4)]GlcNAc(b1-3)Gal(b1-4)[Fuc(a1-3)]GlcNAc
# Outline: as §1
# [9] = target: Fuc(a1-3)[Gal(b1-4)]GlcNAc(b1-3)Gal(b1-4)[Fuc(a1-3)]GlcNAc(b1-3)Gal(b1-4)[Fuc(a1-3)]GlcNAc
# Outline: as §1
# [10] = target: Fuc(a1-3)[Gal(b1-4)]GlcNAc(b1-3)GalNAc
# Outline: as §1
# [11] = target: Fuc(a1-3)[Gal(b1-4)]GlcNAc(b1-4)Gal(b1-4)[Fuc(a1-3)]GlcNAc
# Outline: as §1
# [12] = target: Fuc(a1-3)[Gal(b1-4)]GlcNAc(b1-4)Gal(b1-4)[Fuc(a1-3)]GlcNAc(b1-4)Gal(b1-4)[Fuc(a1-3)]GlcNAc
# Outline: as §1
# [13] = target: Fuc(a1-3)[Gal(b1-4)]GlcNAc(b1-6)GalNAc
# Outline: as §1
# [14] = target: Fuc(a1-3)[Gal(b1-4)]GlcNAc(b1-6)[Gal(b1-3)GlcNAc(b1-3)]Gal(b1-4)Glc
# Outline: as §1
# [15] = target: Fuc(a1-3)[Gal(b1-4)]GlcNAc6S
# Outline: as §1
# [16] = target: Fuc(a1-3)[Gal3S(b1-4)]Glc
# Outline: as §1
# [17] = target: Fuc(a1-3)[Gal3S(b1-4)]GlcNAc
# Outline: as §1
# [18] = target: Fuc(a1-3)[Gal3S(b1-4)]GlcNAc6S
# Outline: as §1
# [19] = target: Fuc(a1-3)[GalNAc(b1-4)]GlcNAc
# Outline: as §1
# [20] = target: Fuc(a1-3)[GalNAc(b1-4)]GlcNAc6S
# Outline: as §1
# Fuc(a1-4)GlcNAc = target: Fuc(a1-4)GlcNAc
# Outline: as §1
# Fuc(b1-3)GlcNAc = target: Fuc(b1-3)GlcNAc
# Outline: as §1
# Gal(a1-2)Gal = target: Gal(a1-2)Gal
# Outline: as §1
# Gal(a1-3)Gal = target: Gal(a1-3)Gal
# Outline: as §1
# Gal(a1-3)Gal(b1-3)GlcNAc = target: Gal(a1-3)Gal(b1-3)GlcNAc
# Outline: as §1
# [21] = target: Gal(a1-3)Gal(b1-3)GlcNAc(b1-2)Man
# Outline: as §1
# [22] = target: Gal(a1-3)Gal(b1-3)GlcNAc(b1-2)Man(a1-3)[Gal(a1-3)Gal(b1-3)GlcNAc(b1-2)Man(a1-6)]Man(b1-4)GlcNAc(b1-4)GlcNAc
# Outline: as §1
# [23] = target: Gal(a1-3)Gal(b1-3)GlcNAc(b1-3)GalNAc
# Outline: as §1
# [24] = target: Gal(a1-3)Gal(b1-3)GlcNAc(b1-6)GalNAc
# Outline: as §1
binder,measurement,setting,value
B1,glycan array binding signal (z-score),[1],-0.272
same,glycan array binding signal (z-score),Fuc(a1-3)GlcNAc,-0.33
same,glycan array binding signal (z-score),[2],-0.107
same,glycan array binding signal (z-score),[3],-0.209
same,glycan array binding signal (z-score),[4],-0.317
same,glycan array binding signal (z-score),[5],-0.223
same,glycan array binding signal (z-score),[6],-0.103
same,glycan array binding signal (z-score),[7],0.128
same,glycan array binding signal (z-score),[8],0.227
same,glycan array binding signal (z-score),[9],-0.441
same,glycan array binding signal (z-score),[10],-0.048
same,glycan array binding signal (z-score),[11],-0.108
same,glycan array binding signal (z-score),[12],-0.249
same,glycan array binding signal (z-score),[13],0.269
same,glycan array binding signal (z-score),[14],-0.544
same,glycan array binding signal (z-score),[15],-0.02
same,glycan array binding signal (z-score),[16],-0.283
same,glycan array binding signal (z-score),[17],-0.127
same,glycan array binding signal (z-score),[18],0.476
same,glycan array binding signal (z-score),[19],-0.226
same,glycan array binding signal (z-score),[20],0.062
same,glycan array binding signal (z-score),Fuc(a1-4)GlcNAc,-0.286
same,glycan array binding signal (z-score),Fuc(b1-3)GlcNAc,-0.187
same,glycan array binding signal (z-score),Gal(a1-2)Gal,-0.302
same,glycan array binding signal (z-score),Gal(a1-3)Gal,-0.243
same,glycan array binding signal (z-score),Gal(a1-3)Gal(b1-3)GlcNAc,-0.26
same,glycan array binding signal (z-score),[21],-0.29
same,glycan array binding signal (z-score),[22],0.504
same,glycan array binding signal (z-score),[23],-0.285
same,glycan array binding signal (z-score),[24],-0.329
